Among all 420,000 compounds or so, about 64,000 (15%) were called active. The shares of active, inactive and inconclusive entries below differ from those in the screen. The call rests on the fitted dose curve; in most records, active means well fitted inhibition curve with a large enough effect; inconclusive means small, poorly fitted or top-dose-only effect; inactive means flat fitted curve, though single readings scatter. No potency is given beside an inconclusive call; the fits are too rough.
Experiment: qHTS for Inhibitors of human tyrosyl-DNA phosphodiesterase 1 (TDP1): qHTS in cells in absence of CPT; further: nearly all actives have a fitted effect of over 55% in size
Details: DT40 Tdp1-/- hTDP1 cells, no CPT, ATP luminescence, 48 h; activity change, negative = growth inhibition: at 46.2 µM (top of the series) unless noted
In short: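 No-CPT arm: Tdp1-/-;hTDP1 DT40 cells (400/well) plus compounds, incubated ≥48 hr at 37 °C. Readout CellTiter-Glo luminescence.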
On the % scale 0 is the no-effect control and ±100 the full control effect; potency means the concentration at half of the fitted maximal effect; tags describe the fitted curve by direction and shape.

**Q.** With `CCOc1ccccc1CNC(=O)c1sc2ncccc2c1-n1cccc1` as the compound, how does the Potency read?
**A.** active: 16.4 µM

**Q.** For `CCCCn1c(=O)nc2n(-c3ccc(C)cc3)c3ccccc3cc-2c1=O`, which Potency is on record?
**A.** inconclusive [inhibitor, single point]

**Q.** With `COc1ccc(N=Cc2c(O)ccc3ccccc23)cc1` as the compound, how does the “activity change, negative = growth inhibition” value read?
**A.** inactive: -6.22%

**Q.** With `COc1ccc(S(=O)(=O)NNC(=O)C23CC4CC(CC(C4)C2)C3)cc1[N+](=O)[O-]` as the compound, how does the Potency read?
**A.** inconclusive [inhibitor, single point]

**Q.** For `COc1ccc(-c2noc(COc3ccccc3OC)n2)cc1OC`, which Potency is on record?
**A.** inconclusive [inhibitor, single point]

**Q.** With `O=S1(=O)CC/C(=N/Nc2ccc(C(F)(F)F)cn2)c2cc(F)ccc21` as the compound, how does the Potency read?
**A.** inconclusive [inhibitor, partial curve]

**Q.** Which Potency does the source give for `CC(=O)Nc1ccc(C2=NNC(=NCC3CCCO3)SC2)cc1` (centres undefined) here?
**A.** inconclusive [inhibitor, single point]

**Q.** With `Cc1c(C(=O)NCc2cccc(Cl)c2)sc(=O)n1Cc1ccc(C(=O)N(C)C)cc1` as the compound, how does the Potency read?
**A.** inconclusive [inhibitor, single point]

**Q.** Which Potency does the source give for `CCOC(=O)c1c(-c2ccccc2)csc1NC(=O)C(C)NCCCN1CCOCC1` (centres undefined) here?
**A.** inconclusive [inhibitor, single point]

**Q.** With `CCN(CC(=O)NCc1ccc(Cl)cc1)C(=O)CSc1ccccc1F` as the compound, how does the Potency read?
**A.** inconclusive [inhibitor, single point]

**Q.** Which Potency does the source give for `COC(=O)c1ccc(C)c(NC(=S)NCc2ccc(Cl)cc2)c1` here?
**A.** inconclusive [inhibitor, single point]

**Q.** With `CCOC(=O)C1CCCN(S(=O)(=O)c2cc(-c3cc(C)no3)ccc2OC)C1` (centres undefined) as the compound, how does the activity change, negative = growth inhibition read?
**A.** inconclusive: -33.6% [inhibitor]

**Q.** For `CCOC(=O)c1c(C)n(CC(O)CN(C)C)c2cc(Br)c(OC)cc12` (centres undefined), which Potency is on record?
**A.** inconclusive [inhibitor, single point]

**Q.** Which Potency does the source give for `COc1ccc(C[C@H]2CN3C(=NC[C@@H]3C(C)C)N2CCNC(=O)CCC2CCCCC2)cc1` here?
**A.** active: 7.31 µM

**Q.** With `OC(COCC1COc2ccccc2O1)CN1CCN(c2ccccn2)CC1` (centres undefined) as the compound, how does the Potency read?
**A.** inconclusive [inhibitor, single point]

**Q.** What about the activity change, negative = growth inhibition of the same compound?
**A.** inconclusive: -30.2% [inhibitor]

**Q.** Which Potency does the source give for `CCOc1cc(C2c3c(-c4cc(C)ccc4O)n[nH]c3C(=O)N2CCCOC(C)C)ccc1O` (centres undefined) here?
**A.** inconclusive [inhibitor, single point]

**Q.** With `CCN1CCc2c(sc(NC(=S)NC(=O)c3cccc(F)c3)c2C(N)=O)C1` as the compound, how does the Potency read?
**A.** inconclusive [inhibitor, single point]

**Q.** With `C=CCn1c(SCc2ccccc2)nc2c1c(=O)[nH]c(=O)n2C` as the compound, how does the Potency read?
**A.** inconclusive [inhibitor, single point]

**Q.** For `COC(=O)CCc1sc(Nc2ccc(Br)cc2)nc1-c1ccc(OC)cc1`, which Potency is on record?
**A.** active: 13 µM

**Q.** For `O=C(CSc1nc2ccccc2s1)NNC(=S)Nc1ccc(Br)cc1`, which Potency is on record?
**A.** inconclusive [inhibitor, single point]

**Q.** For `NNC(=O)c1cccc(COc2ccc(Br)cc2)c1`, which Potency is on record?
**A.** inconclusive [inhibitor, single point]

**Q.** With `CCOC(=O)Cc1csc(NC(=O)c2cccc(Cl)c2)n1` as the compound, how does the “activity change, negative = growth inhibition” value read?
**A.** inactive: -28.6%

**Q.** With `COc1ccc(CC2(CO)CCN(Cc3cnn(-c4ccccc4)c3)CC2)cc1` as the compound, how does the Potency read?
**A.** inconclusive [inhibitor, partial curve, poor fit]

**Q.** With `CC1CCN(Cc2nc(Cl)c3c4c(sc3n2)CCC4)CC1` as the compound, how does the Potency read?
**A.** active: 13 µM

**Q.** Which Potency does the source give for `O=C(COC(=O)c1cc(-c2cccs2)nc2ccccc12)c1ccc(F)cc1` here?
**A.** inconclusive [inhibitor, single point]

**Q.** With `S=C(c1ccc(-c2cccc(Cl)c2)o1)N1CCCCC1` as the compound, how does the Potency read?
**A.** inconclusive [inhibitor, single point]

**Q.** For `CCc1nc2ccc(C(=O)N3CCN(c4ccc([N+](=O)[O-])cc4)CC3)cc2nc1CC`, which Potency is on record?
**A.** inconclusive [inhibitor, single point]

**Q.** For `CN1CCN(Cc2nc3ccccc3c(=O)n2Cc2nc(-c3ccc([N+](=O)[O-])cc3)cs2)CC1`, which Potency is on record?
**A.** active: 5.8 µM

**Q.** For `CCCn1c(C)cc(/C=C(\C#N)C(=O)OCC(=O)NC(=O)NC(C)(C)C)c1C`, which Potency is on record?
**A.** inconclusive [inhibitor, single point]

**Q.** For `N#CC(C#N)=C1C=CC=CN1/C(=C\c1ccccc1)C(=O)c1cccs1`, which Potency is on record?
**A.** active: 3.66 µM

**Q.** With `COc1cc(-c2nnc(-c3cccnc3)o2)cc(OC)c1OC` as the compound, how does the “activity change, negative = growth inhibition” value read?
**A.** inactive: -3.46%

**Q.** For `Cc1cccc(-c2cc3nc4c(c(N5CCCC(O)C5)n3n2)CCC4)c1` (centres undefined), which Potency is on record?
**A.** active: 25.9 µM

**Q.** Which Potency does the source give for `CCC(C)n1c(=O)c2sccc2n2c(CCCC(=O)N3CCN(c4ccccc4)CC3)nnc12` (centres undefined) here?
**A.** inconclusive [inhibitor, partial curve, poor fit]

**Q.** For `Cc1sc(NC(=O)CSc2nnc(COc3ccc(Cl)cc3)n2C)c(C#N)c1C`, which Potency is on record?
**A.** inconclusive [inhibitor, single point]

**Q.** Which “activity change, negative = growth inhibition” value does the source give for `CCOc1cnn(-c2cc(Oc3ccc(C)cc3)ncn2)c(=O)c1Cl` here?
**A.** inactive: -24.8%

**Q.** For `O=C(COC(=O)c1ccc(O)cc1)Nc1ccc2c(c1)OCO2`, which Potency is on record?
**A.** active: 11.6 µM

**Q.** For `COc1ccc(CCN2C(=O)CC(C(N)=O)SC2=Nc2ccccc2)cc1OC` (centres undefined), which Potency is on record?
**A.** inconclusive [inhibitor, single point]

**Q.** Which Potency does the source give for `O=C(Cn1c(=O)n(Cc2nc(-c3ccccc3)no2)c(=O)c2cc3c(cc21)OCO3)Nc1ccccc1` here?
**A.** inconclusive [inhibitor, single point]

**Q.** For `CCCCn1nc(C(=O)Nc2ccc(S(=O)(=O)Nc3ncccn3)cc2)c2ccccc2c1=O`, which Potency is on record?
**A.** inconclusive [inhibitor, partial curve]

**Q.** For `O=C(N/N=C/c1sc(=O)n(Cc2ccc(Br)cc2)c1Cl)c1ccco1`, which Potency is on record?
**A.** inconclusive [inhibitor, single point]

**Q.** Which “activity change, negative = growth inhibition” value does the source give for `N#Cc1cccc2cccc(S(=O)(=O)N3CCOCC3)c12` here?
**A.** inactive: -0.173%

**Q.** Which Potency does the source give for `CCCCCCn1c(SCC(=O)OC)nc2c1c(=O)[nH]c(=O)n2C` here?
**A.** inconclusive [inhibitor, partial curve, poor fit]

**Q.** Which “activity change, negative = growth inhibition” value does the source give for `N#CC1=C(N)Oc2c(oc(CO)cc2=O)C1c1ccsc1` (centres undefined) here?
**A.** inactive: 5.8%

**Q.** Which Potency does the source give for `COc1ccc(-n2c(N)c(C(=O)NCc3ccco3)c3nc4ccccc4nc32)c(OC)c1` here?
**A.** inconclusive [inhibitor, single point]

**Q.** Which activity change, negative = growth inhibition does the source give for `COc1ccc(CNC(=O)c2sc3nc4n(c(=O)c3c2C)CCCC4)cc1` here?
**A.** inconclusive: -31.5% [inhibitor]

**Q.** Which “activity change, negative = growth inhibition” value does the source give for `COc1cc(OC)cc(C(=O)N2CCCC(n3cc(C(=O)NCC(C)C)nn3)C2)c1` (centres undefined) here?
**A.** inactive: -7.36%

**Q.** For `CCOC(=O)C(=NCCOC)NNc1cc(Cl)ccc1Cl`, which Potency is on record?
**A.** inconclusive [inhibitor, single point]

**Q.** Which “activity change, negative = growth inhibition” value does the source give for `CN1CCCC1=Nc1ccccc1` here?
**A.** inactive: -3.26%

**Q.** For `CCCCCC(=O)Nc1cccc(C2=NOC3(C2)C[C@@H](C(N)=O)N(C(=O)c2ccc(Cl)cc2)C3)c1` (some centres undefined), which Potency is on record?
**A.** inconclusive [inhibitor, single point]

**Q.** For `C=CCn1c(O)c(N=O)c2cc(C)ccc21`, which Potency is on record?
**A.** inconclusive [inhibitor, partial curve, poor fit]

**Q.** For `O=C(Nc1nnc([C@H]2C[C@H](O)[C@@H](CO)O2)s1)Nc1cccc(Cl)c1Cl`, which “activity change, negative = growth inhibition” value is on record?
**A.** inactive: -15.4%

**Q.** With `COc1cccc(Cc2nc3ccccc3nc2SCC(=O)Nc2cccc(C)c2)c1` as the compound, how does the Potency read?
**A.** inconclusive [inhibitor, single point]

**Q.** With `Cc1cc(C(F)F)n2ncc(C(=O)NCCc3ccc(Cl)cc3)c2n1` as the compound, how does the Potency read?
**A.** inconclusive [inhibitor, single point]

**Q.** With `Cc1ccc(Cn2cc(S(=O)(=O)c3cccc(C)c3)c(=O)c3cc(F)c(N4CCOCC4)cc32)cc1` as the compound, how does the “activity change, negative = growth inhibition” value read?
**A.** inactive: -26.8%

**Q.** For `Cn1cccc1/C=N/N1CCN(Cc2ccc(Cl)cc2)CC1`, which Potency is on record?
**A.** inconclusive [inhibitor, single point]

**Q.** With `COc1cc2nc3n(c(=O)c2cc1OC)-c1cc2ccccc2cc1C(=O)NC3Cc1ccccc1` (centres undefined) as the compound, how does the Potency read?
**A.** active: 16.4 µM

**Q.** For `COc1ccc(NC(=S)NC(NC(=O)/C=C/c2ccccc2)C(Cl)(Cl)Cl)cc1` (centres undefined), which Potency is on record?
**A.** active: 18.4 µM

**Q.** For `Cc1ccc(C2C(C(=O)c3cc4ccccc4o3)=C(O)C(=O)N2c2cc(C)on2)cc1` (centres undefined), which Potency is on record?
**A.** inconclusive [inhibitor, single point]

**Q.** With `Clc1ccc(C2=CC(c3ccco3)n3ncnc3N2)cc1` (centres undefined) as the compound, how does the activity change, negative = growth inhibition read?
**A.** inconclusive: -34.1% [inhibitor]

**Q.** With `COc1ccc2[nH]c3c(Cl)ncnc3c2c1` as the compound, how does the Potency read?
**A.** inconclusive [inhibitor, single point]

**Q.** Which Potency does the source give for `Cc1cc(C)n(CC(=O)N/N=C/c2ccc([N+](=O)[O-])s2)n1` here?
**A.** inconclusive [inhibitor, single point]

**Q.** For `Cc1ccc(CS(=O)(=O)c2ccc(C(=O)N3CCN(c4ccccn4)CC3)cc2[N+](=O)[O-])cc1`, which Potency is on record?
**A.** active: 25.9 µM

**Q.** With `S=C1N(c2ccccc2)C(c2ccc(Cl)cc2)N2CCCN12` (centres undefined) as the compound, how does the Potency read?
**A.** inconclusive [inhibitor, single point]

**Q.** With `Cc1cc(C(=O)NC2CCCc3c2cnn3-c2ccccc2F)nc(C)n1` (centres undefined) as the compound, how does the Potency read?
**A.** inconclusive [inhibitor, single point]

**Q.** Which “activity change, negative = growth inhibition” value does the source give for `COc1ccc(C)cc1NC(=O)CSc1nnc(-c2ccc(Br)cc2)o1` here?
**A.** inactive: -18.9%

**Q.** For `CCCn1c(SCc2cc(=O)[nH]c3ccccc23)nc2c1c(=O)n(C)c(=O)n2C`, which “activity change, negative = growth inhibition” value is on record?
**A.** inactive: -29%

**Q.** With `C/C(=N\Nc1nnc(-c2ccccc2)c(-c2ccccc2)n1)c1cccc([N+](=O)[O-])c1` as the compound, how does the Potency read?
**A.** active: 8.2 µM

**Q.** With `CC(Sc1nnc(-c2ccccc2F)n1N)C(=O)NCC1CCCO1` (centres undefined) as the compound, how does the “activity change, negative = growth inhibition” value read?
**A.** inactive: -3.15%

Source: PubChem BioAssay AID686978 (National Center for Advancing Translational Sciences (NCATS), 2013)
